Measurements as given in FireProtDB (doi:10.1002/pro.5560041011).

Conditions: Gallus gallus; pH 6.4; Thermal; CD; Potassium phosphate 66 mM; reversible: yes

## Lysozyme C wild type (sequence left out)
  Tm: 74 °C
